Experimental data taken from the supplement of paper PMC4604168 (melanoma cell lines).
Some of the results follow. Repeats are few or missing, and single values can be far off.

Tests used:
Test in all cases: cell count relative to DMSO control; melanoma cells; higher = more viable cells
Details in all cases: library dose: low library concentration; 72 h
[1] = test system: MZ2-MEL
[2] = test system: MeWo
[3] = test system: RPMI7951
[4] = test system: RVH-421
[5] = test system: SkMel28
[6] = test system: SkMel2
[7] = test system: SkMel30
[8] = test system: SkMel5
[9] = test system: UACC257
[10] = test system: UACC62
[11] = test system: WM115
[12] = test system: WM1716
[13] = test system: WM1745
[14] = test system: WM3526
[15] = test system: WM3619
[16] = test system: WM451Lu
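Further: cell number obtained by counting DAPI-stained nuclei in high-throughput microscope images with image analysis software, screen run in 1,536-well plates.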

## Cc1cc(Nc2cc(N3CCN(C)CC3)nc(Sc3ccc(NC(=O)C4CC4)cc3)n2)n[nH]1 [Tozasertib] + COc1cc2c(Oc3ccc4[nH]c(C)cc4c3F)ncnc2cc1OCCCN1CCCC1 [cediranib] (first compound 0.006 µM, partner dose 0.4 µM)
[1]
  cell count: 98.3%
[2]
  cell count: 95.8%
[3]
  cell count: 93.5%
[4]
  cell count: 96.4%
[5]
  cell count: 92.8%
[6]
  cell count: 96.6%
[7]
  cell count: 111%
[8]
  cell count: 88.4%
[9]
  cell count: 73.2%
[10]
  cell count: 83.9%
[11]
  cell count: 88.8%
[12]
  cell count: 93.7%
[13]
  cell count: 81.9%
[14]
  cell count: 114%
[15]
  cell count: 94.7%
[16]
  cell count: 127%

## N#CC[C@H](C1CCCC1)n1cc(-c2ncnc3[nH]ccc23)cn1 [ruxolitinib] + Cn1cncc1[C@@](N)(c1ccc(Cl)cc1)c1ccc2c(c1)c(-c1cccc(Cl)c1)cc(=O)n2C [tipifarnib] (first compound 1 µM, partner dose 0.01 µM)
[1]
  cell count: 108%
[2]
  cell count: 89.4%
[3]
  cell count: 91.4%
[4]
  cell count: 84.5%
[5]
  cell count: 90.9%
[6]
  cell count: 87.8%
[7]
  cell count: 101%
[8]
  cell count: 102%
[9]
  cell count: 78.8%
[10]
  cell count: 94.3%
[11]
  cell count: 97.5%
[12]
  cell count: 83.8%
[13]
  cell count: 90.1%
[14]
  cell count: 94.1%
[15]
  cell count: 98.3%
[16]
  cell count: 72.3%

## CC[C@]1(O)C[C@H]2CN(CCc3c([nH]c4ccccc34)[C@@](C(=O)OC)(c3cc4c(cc3OC)N(C=O)[C@H]3[C@@](O)(C(=O)OC)[C@H](OC(C)=O)[C@]5(CC)C=CCN6CC[C@]43[C@@H]65)C2)C1 [vincristine] + COc1cc2ncnc(Nc3ccc(Oc4ccccc4)cc3)c2cc1OC [SrcI1] (first compound 0.0001 µM, partner dose 2 µM)
[1]
  cell count: 96.4%
[2]
  cell count: 44.5%
[3]
  cell count: 48.2%
[4]
  cell count: 44.4%
[5]
  cell count: 34.1%
[6]
  cell count: 98.6%
[7]
  cell count: 35%
[8]
  cell count: 74.8%
[9]
  cell count: 29.3%
[10]
  cell count: 36.2%
[11]
  cell count: 24.4%
[12]
  cell count: 32.3%
[13]
  cell count: 69.9%
[14]
  cell count: 40.7%
[15]
  cell count: 44.5%
[16]
  cell count: 32.6%

## CC[C@]1(O)C[C@H]2CN(CCc3c([nH]c4ccccc34)[C@@](C(=O)OC)(c3cc4c(cc3OC)N(C=O)[C@H]3[C@@](O)(C(=O)OC)[C@H](OC(C)=O)[C@]5(CC)C=CCN6CC[C@]43[C@@H]65)C2)C1 [vincristine] + N#Cc1c(O)c2c(-c3ccc(-c4ccccc4O)cc3)csc2[nH]c1=O [A769662] (first compound 0.0001 µM, partner dose 2 µM)
[1]
  cell count: 100%
[2]
  cell count: 91.2%
[3]
  cell count: 59.6%
[4]
  cell count: 88.8%
[5]
  cell count: 61.7%
[6]
  cell count: 95.7%
[7]
  cell count: 77.6%
[8]
  cell count: 80.9%
[9]
  cell count: 67.9%
[10]
  cell count: 56.4%
[11]
  cell count: 60.4%
[12]
  cell count: 51.1%
[13]
  cell count: 84.8%
[14]
  cell count: 83.2%
[15]
  cell count: 59.3%
[16]
  cell count: 56.7%

## CC[C@]1(O)C[C@H]2CN(CCc3c([nH]c4ccccc34)[C@@](C(=O)OC)(c3cc4c(cc3OC)N(C=O)[C@H]3[C@@](O)(C(=O)OC)[C@H](OC(C)=O)[C@]5(CC)C=CCN6CC[C@]43[C@@H]65)C2)C1 [vincristine] + O=C(Nc1cccc(Cl)c1)Nc1ncc(CCNc2ncnc3ccsc23)s1 [SNS314] (first compound 0.0001 µM, partner dose 0.0008 µM)
[1]
  cell count: 88.4%
[2]
  cell count: 81.8%
[3]
  cell count: 74%
[4]
  cell count: 93%
[5]
  cell count: 76.6%
[6]
  cell count: 102%
[7]
  cell count: 66.3%
[8]
  cell count: 82.2%
[9]
  cell count: 41.2%
[10]
  cell count: 65.5%
[11]
  cell count: 41.7%
[12]
  cell count: 50.3%
[13]
  cell count: 80.8%
[14]
  cell count: 68.9%
[15]
  cell count: 60.8%
[16]
  cell count: 71.4%

## CC[C@]1(O)C[C@H]2CN(CCc3c([nH]c4ccccc34)[C@@](C(=O)OC)(c3cc4c(cc3OC)N(C=O)[C@H]3[C@@](O)(C(=O)OC)[C@H](OC(C)=O)[C@]5(CC)C=CCN6CC[C@]43[C@@H]65)C2)C1 [vincristine] + CCN(CC)CCCCNc1ncc2cc(-c3cc(OC)cc(OC)c3)c(NC(=O)NC(C)(C)C)nc2n1 [PD173074] (first compound 0.0001 µM, partner dose 0.1 µM)
[1]
  cell count: 94.7%
[2]
  cell count: 88.5%
[3]
  cell count: 81.3%
[4]
  cell count: 114%
[5]
  cell count: 85.8%
[6]
  cell count: 105%
[7]
  cell count: 63.5%
[8]
  cell count: 94%
[9]
  cell count: 83.2%
[10]
  cell count: 80.1%
[11]
  cell count: 69.2%
[12]
  cell count: 53.4%
[13]
  cell count: 82.6%
[14]
  cell count: 73.3%
[15]
  cell count: 82.4%
[16]
  cell count: 69.5%

## CC[C@]1(O)C[C@H]2CN(CCc3c([nH]c4ccccc34)[C@@](C(=O)OC)(c3cc4c(cc3OC)N(C=O)[C@H]3[C@@](O)(C(=O)OC)[C@H](OC(C)=O)[C@]5(CC)C=CCN6CC[C@]43[C@@H]65)C2)C1 [vincristine] + Cn1cncc1[C@@](N)(c1ccc(Cl)cc1)c1ccc2c(c1)c(-c1cccc(Cl)c1)cc(=O)n2C [tipifarnib] (first compound 0.0001 µM, partner dose 0.01 µM)
[1]
  cell count: 66.8%
[2]
  cell count: 80.1%
[3]
  cell count: 26.5%
[4]
  cell count: 79.2%
[5]
  cell count: 53.3%
[6]
  cell count: 86.2%
[7]
  cell count: 52.3%
[8]
  cell count: 73.9%
[9]
  cell count: 44.1%
[10]
  cell count: 52%
[11]
  cell count: 28.4%
[12]
  cell count: 44.4%
[13]
  cell count: 75.3%
[14]
  cell count: 56.5%
[15]
  cell count: 66.1%
[16]
  cell count: 40.5%

## CC[C@]1(O)C[C@H]2CN(CCc3c([nH]c4ccccc34)[C@@](C(=O)OC)(c3cc4c(cc3OC)N(C=O)[C@H]3[C@@](O)(C(=O)OC)[C@H](OC(C)=O)[C@]5(CC)C=CCN6CC[C@]43[C@@H]65)C2)C1 [vincristine] + COc1ccc2c(c1)CCC1C2CCC2(C)C(NCCCCCCN3C(=O)C=CC3=O)CCC12 [U73122] (first compound 0.0001 µM, partner dose 0.4 µM)
[1]
  cell count: 113%
[2]
  cell count: 98%
[3]
  cell count: 82.3%
[4]
  cell count: 93%
[5]
  cell count: 110%
[6]
  cell count: 100%
[7]
  cell count: 108%
[8]
  cell count: 112%
[9]
  cell count: 75.5%
[10]
  cell count: 97.5%
[11]
  cell count: 66.3%
[12]
  cell count: 48.6%
[13]
  cell count: 97.7%
[14]
  cell count: 88.2%
[15]
  cell count: 84.2%
[16]
  cell count: 89.8%

## CC[C@]1(O)C[C@H]2CN(CCc3c([nH]c4ccccc34)[C@@](C(=O)OC)(c3cc4c(cc3OC)N(C=O)[C@H]3[C@@](O)(C(=O)OC)[C@H](OC(C)=O)[C@]5(CC)C=CCN6CC[C@]43[C@@H]65)C2)C1 [vincristine] + OCCn1cc(-c2cnc3nnn(Cc4ccc5ncccc5c4)c3n2)cn1 [PF04217903] (first compound 0.0001 µM, partner dose 1 µM)
[1]
  cell count: 95.1%
[2]
  cell count: 96.2%
[3]
  cell count: 82.5%
[4]
  cell count: 81.8%
[5]
  cell count: 92.7%
[6]
  cell count: 89.3%
[7]
  cell count: 81.3%
[8]
  cell count: 85.3%
[9]
  cell count: 59%
[10]
  cell count: 83.7%
[11]
  cell count: 65.8%
[12]
  cell count: 62.4%
[13]
  cell count: 97.8%
[14]
  cell count: 93.3%
[15]
  cell count: 85.6%
[16]
  cell count: 74.3%

## CC[C@]1(O)C[C@H]2CN(CCc3c([nH]c4ccccc34)[C@@](C(=O)OC)(c3cc4c(cc3OC)N(C=O)[C@H]3[C@@](O)(C(=O)OC)[C@H](OC(C)=O)[C@]5(CC)C=CCN6CC[C@]43[C@@H]65)C2)C1 [vincristine] + Cc1cc(N2CCOCC2)cc2[nH]c(-c3c(NC[C@@H](O)c4cccc(Cl)c4)cc[nH]c3=O)nc12 [BMS536924] (first compound 0.0001 µM, partner dose 0.2 µM)
[1]
  cell count: 91.7%
[2]
  cell count: 71.3%
[3]
  cell count: 52.5%
[4]
  cell count: 90.2%
[5]
  cell count: 52.2%
[6]
  cell count: 86.3%
[7]
  cell count: 44.2%
[8]
  cell count: 71.1%
[9]
  cell count: 43.3%
[10]
  cell count: 55.4%
[11]
  cell count: 50.5%
[12]
  cell count: 44.6%
[13]
  cell count: 73.5%
[14]
  cell count: 59%
[15]
  cell count: 53.2%
[16]
  cell count: 34.3%

## CC[C@]1(O)C[C@H]2CN(CCc3c([nH]c4ccccc34)[C@@](C(=O)OC)(c3cc4c(cc3OC)N(C=O)[C@H]3[C@@](O)(C(=O)OC)[C@H](OC(C)=O)[C@]5(CC)C=CCN6CC[C@]43[C@@H]65)C2)C1 [vincristine] + C=CCn1c(=O)c2cnc(Nc3ccc(N4CCN(C)CC4)cc3)nc2n1-c1cccc(C(C)(C)O)n1 [MK1775] (first compound 0.0001 µM, partner dose 0.02 µM)
[1]
  cell count: 96.2%
[2]
  cell count: 100%
[3]
  cell count: 75.1%
[4]
  cell count: 91.7%
[5]
  cell count: 81.4%
[6]
  cell count: 80.2%
[7]
  cell count: 64.7%
[8]
  cell count: 68.2%
[9]
  cell count: 67.6%
[10]
  cell count: 52.6%
[11]
  cell count: 40%
[12]
  cell count: 40.1%
[13]
  cell count: 76.1%
[14]
  cell count: 72.6%
[15]
  cell count: 38.4%
[16]
  cell count: 56.2%

## Cc1cc(Nc2cc(N3CCN(C)CC3)nc(Sc3ccc(NC(=O)C4CC4)cc3)n2)n[nH]1 [Tozasertib] + Cn1cc(/C=C2\C(=O)Nc3cccnc32)c2ccccc21 [GW441756] (first compound 0.006 µM, partner dose 0.4 µM)
[1]
  cell count: 93%
[2]
  cell count: 83.7%
[3]
  cell count: 99.7%
[4]
  cell count: 69.1%
[5]
  cell count: 95.1%
[6]
  cell count: 105%
[7]
  cell count: 98.7%
[8]
  cell count: 83.5%
[9]
  cell count: 87.3%
[10]
  cell count: 104%
[11]
  cell count: 89.9%
[12]
  cell count: 109%
[13]
  cell count: 98.3%
[14]
  cell count: 94.2%
[15]
  cell count: 90.5%
[16]
  cell count: 93.6%

## N#CC[C@H](C1CCCC1)n1cc(-c2ncnc3[nH]ccc23)cn1 [ruxolitinib] + CN(NC(=O)CC(=O)NN(C)C(=S)c1ccccc1)C(=S)c1ccccc1 [STA4783] (first compound 1 µM, partner dose 0.006 µM)
[1]
  cell count: 104%
[2]
  cell count: 91.2%
[3]
  cell count: 114%
[4]
  cell count: 62.9%
[5]
  cell count: 105%
[6]
  cell count: 96.9%
[7]
  cell count: 96.1%
[8]
  cell count: 99.2%
[9]
  cell count: 85%
[10]
  cell count: 123%
[11]
  cell count: 103%
[12]
  cell count: 86.8%
[13]
  cell count: 59.4%
[14]
  cell count: 127%
[15]
  cell count: 73.4%
[16]
  cell count: 100%

## CC[C@]1(O)C[C@H]2CN(CCc3c([nH]c4ccccc34)[C@@](C(=O)OC)(c3cc4c(cc3OC)N(C=O)[C@H]3[C@@](O)(C(=O)OC)[C@H](OC(C)=O)[C@]5(CC)C=CCN6CC[C@]43[C@@H]65)C2)C1 [vincristine] + CC(C)CCN1c2nc(Nc3cc(F)c(O)c(F)c3)ncc2N(C)C(=O)C1C [BID1870] (first compound 0.0001 µM, partner dose 0.2 µM)
[1]
  cell count: 94.5%
[2]
  cell count: 53.4%
[3]
  cell count: 38.4%
[4]
  cell count: 62.5%
[5]
  cell count: 55.5%
[6]
  cell count: 78.4%
[7]
  cell count: 33.4%
[8]
  cell count: 81.2%
[9]
  cell count: 54.7%
[10]
  cell count: 34.3%
[11]
  cell count: 43.8%
[12]
  cell count: 44.9%
[13]
  cell count: 67%
[14]
  cell count: 39.3%
[15]
  cell count: 64.2%
[16]
  cell count: 41.2%
